Tested on: HT1080 cells
Assay: Microfluorometry of Ca^2+ spikes/oscillations in indo-1 labeled HT1080 cells

SMILES	changes in Ca^2+ spike frequency or amplitude (15 μM)	changes in Ca^2+ spike frequency or amplitude (1 μM)
COc1ccc(CCCOC(Cn2ccnc2)c2ccc(OC)cc2)cc1 (centres unmarked) [SKF96365]	No changes	
COc1ccc([C@@H]2Sc3ccccc3N(CCN(C)C)C(=O)[C@@H]2OC(C)=O)cc1 [diltiazem]		No changes

Source: patent US20060003020A1, “Anti-metastatic ability of mibefradil and gadolinium” (THE REGENTS OF THE UNIVERSITY OF MICHIGAN, priority 2004, published 2006)
